Whole data set: some 33,000 sequences, median “E-score (-0.5 to 0.5)” near -0.013, cut for the highest 2% near 0.3. Some of the results follow.
The sequences below were run against T1, Msn1 (UniProt P22148) (assay: PBM E-score (8-mer binding enrichment) (E-score (-0.5 to 0.5)); higher = stronger / more preferred TF binding; most listed sequences are background and not binding sites). Conditions: protein concentration: 200 nM; construct: GST-full length.
T1 sequence: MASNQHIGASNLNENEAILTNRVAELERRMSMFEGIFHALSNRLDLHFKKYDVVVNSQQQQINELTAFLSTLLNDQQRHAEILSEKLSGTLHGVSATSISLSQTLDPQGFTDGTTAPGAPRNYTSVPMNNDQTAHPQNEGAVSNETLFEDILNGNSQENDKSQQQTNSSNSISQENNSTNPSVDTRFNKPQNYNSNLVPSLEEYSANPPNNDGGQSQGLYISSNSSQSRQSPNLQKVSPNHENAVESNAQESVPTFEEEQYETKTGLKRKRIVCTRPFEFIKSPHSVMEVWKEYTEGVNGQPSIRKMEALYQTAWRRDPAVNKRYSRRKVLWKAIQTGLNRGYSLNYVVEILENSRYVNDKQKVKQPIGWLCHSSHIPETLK
How it was run: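 Using PURExpress in vitro transcription/translation, GST-tagged yeast transcription factors were made in full-length or DNA-binding-domain form. These were applied at about 100-200 nM to double-stranded universal all-10-mer Agilent arrays, and bound protein was detected with fluorescent anti-GST. Scans were normalised with masliner before the Universal PBM Analysis Suite assigned E-scores to ungapped eight-base words pooled with their reverse complements.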

Row | Sequence | PBM E-score
1 | GTCTGGCA | 0.0377
2 | GGGTTCAA | 0.0139
3 | ATTTTTCG | 0.282
4 | CCGGATAA | 0.172
5 | GTTGGAGA | -0.0165
6 | CTCTCCCA | -0.197
7 | ACGGCAGG | -0.261
8 | GTATATGA | 0.118
9 | ATTTACTA | 0.206
10 | ACGGGAAT | -0.0339
11 | CTATTGTC | 0.288
12 | TCCTCTCA | -0.256
13 | GATGGAAA | -0.126
14 | ACCAAGTA | -0.0228
15 | GTTGTGAA | 0.0984
16 | ATACCGTA | -0.0273
17 | GTCGGGTA | 0.0767
18 | GGGTCTAA | -0.109
19 | CTTAGATA | 0.217
20 | AATCGCCT | 0.0986
21 | ATGGCCAT | 0.145
22 | GTTACTAA | 0.168
23 | CTGTTCGC | 0.0285
24 | CTGGGGTA | -0.00889
25 | GCCCACCC | -0.145

Row | Sequence | PBM E-score
26 | GGCCTACA | -0.0381
27 | AAAATCGC | -0.00487
28 | CGGGGAAC | -0.0755
29 | CCGTACAG | -0.0369
30 | AACGCTCG | 0.109
31 | CCAAACTC | -0.054
32 | CGACCTAC | -0.107
33 | ACCCGCGC | 0.0994
34 | GATGGGGC | -0.162
35 | CTCTAGGC | -0.144
36 | CCGGACGG | -0.0417
37 | CTGCGTGC | -0.159
38 | CCCTGCTC | -0.172
39 | GGAGACCA | -0.0845
40 | CATATTCA | 0.211
41 | AGGGTGAA | -0.177
42 | CGGCATGA | 0.182
43 | CTTTACCC | -0.00697
44 | CACTGATC | -0.0557
45 | CGCCCTTA | -0.0904
46 | CCTGAAAC | 0.0986
47 | CGAGTACC | 0.0728
48 | AGGCGCAC | -0.0415
49 | AATGATAC | 0.0824
50 | CACTTCAA | 0.0447

Row | Sequence | PBM E-score
51 | TTCTGAAA | 0.173
52 | CATTTGCC | -0.00883
53 | ATACTGTA | 0.235
54 | ACAACCGG | 0.0947
55 | GACGTCTA | -0.0898
56 | AAACAACT | 0.113
57 | AAAGAGGA | -0.224
58 | GCCGAGCA | -0.105
59 | GTATATCA | 0.165
60 | AAATTAGC | 0.101
61 | CGGTCAGC | -0.112
62 | CACCTCCC | -0.17
63 | GGAAGGGA | -0.222
64 | ACGGCCGC | 0.0164
65 | AGAAGGGA | -0.215
66 | GGAGGTTA | -0.136
67 | CGCGTTTA | 0.09
68 | AAGGAGAC | -0.2
69 | CTAATTAC | 0.0275
70 | GGTAATAA | 0.125
71 | AGAGTCAA | -0.202
72 | AGCAATAT | 0.136
73 | CGAAGCCG | -0.0934
74 | ACATGCTA | 0.128
75 | AGGTAGCA | -0.36

Row | Sequence | PBM E-score
76 | CATGGGAA | 0.0041
77 | CTTGTGGA | 0.0651
78 | ATGTACGG | 0.108
79 | GATGGTAA | -0.0474
80 | AGTTGGCG | 0.0078
81 | GATTATCA | -0.0136
82 | GACAGAGA | 0.236
83 | CGACGTCG | -0.0112
84 | CGAAGTCG | 0.125
85 | ACCATAGG | -0.0558
86 | AATAAAAA | 0.216
87 | GAGTTAGA | -0.188
88 | ACCCATTA | -0.0843
89 | AAGGGGCT | -0.041
90 | CAAGTGTG | -0.0323
91 | GTGCTTGA | -0.0761
92 | CGAACACG | 0.0294
93 | CCCACGCG | -0.271
94 | GCGTATCC | -0.037
95 | GGCTTGGA | -0.128
96 | CCGATGCG | -0.112
97 | CGGTACGA | -0.02
98 | CGACCCTA | -0.26
99 | CTTAAATA | 0.0257
100 | AGTCGTAT | 0.0498

Row | Sequence | PBM E-score
101 | GGTGACCA | 0.00095
102 | GGCGGACA | 0.273
103 | AATTGCCG | -0.00266
104 | ACTCCCCG | 0.0649
105 | GCCAGTTA | 0.0128
106 | CATACGAA | 0.155
107 | CTTCCCGC | -0.231
108 | GTCCCCTA | 0.0141
109 | AGTGAACT | -0.0536
110 | GATAAGGC | 0.0376
111 | AAAAGGCG | 0.186
112 | CCTAATCC | 0.016
113 | AATAAATC | -0.0882
114 | GAGTTGAA | -0.0529
115 | AGAGCGGG | -0.14
116 | CGAAGGCC | -0.126
117 | AGGGCCCA | -0.369
118 | ACCCATCA | -0.164
119 | AACTGGCT | -0.207
120 | ATCGGTGG | -0.218
121 | ATCCGATG | 0.0429
122 | CAGAGCAC | -0.208
123 | GATCTGGC | -0.0167
124 | GGGGGCAC | -0.406
125 | GAATGGGC | -0.297

Row | Sequence | PBM E-score
126 | CGCACGCG | -0.165
127 | CCCCTTCC | -0.279
128 | ATTCACAA | 0.0966
129 | ACTAAAGG | 0.0941
130 | CGACTCAC | -0.129
131 | CATATCCC | 0.0863
132 | GGAAGCAC | -0.138
133 | AGGGGAAT | -0.0162
134 | CTAGAGAA | -0.0599
135 | CTTAGAGA | -0.00262
136 | TATTGCAA | 0.0856
137 | CGCAAAAG | -0.0449
138 | CGTACCTA | -0.0103
139 | ACTATATG | 0.0622
140 | TTAGTGAA | 0.0399
141 | CAAGGCCC | -0.266
142 | AGAATCGG | 0.144
143 | CAAAAGAC | 0.0448
144 | GATGCCCA | 0.0579
145 | GAGGATGC | -0.254
146 | AAGCAAGG | -0.0227
147 | AACCTCAG | 0.00123
148 | TACCAGGA | 0.174
149 | TAAAGTCA | 0.162
150 | ATGTAGCA | -0.0326

Row | Sequence | PBM E-score
151 | CGTGATCC | -0.119
152 | CTGGCGCC | -0.138
153 | CACCCTAC | -0.0538
154 | CGGGGAGA | -0.151
155 | CCCTAAAG | -0.178
156 | CTGAGCTC | 0.0318
157 | GCATATAA | 0.0988
158 | CTCGCTCA | -0.00023
159 | CACATTGC | 0.115
160 | ATCGGATA | 0.19
161 | CTGCCTTA | -0.22
162 | ATATCTGG | 0.045
163 | ACTACGAC | -0.0474
164 | CTTCATTC | -0.0511
165 | CTCCGCAG | -0.0819
166 | ATACGTGG | -0.103
167 | GGTTTGAC | -0.0735
168 | CGTAGAAG | -0.00615
169 | TAAATCCA | 0.0101
170 | ACCCCTAA | -0.0913
171 | ACAAACGT | 0.244
172 | ACAAAGGT | 0.218

Source: the supplement of paper PMC3334620
